Measurements: the supplement of paper PMC8728848
The list shows a part of the results.

Assays:
Test in all cases: glycan array binding signal (z-score within array); higher = stronger binding
Details in all cases: glycan notation: IUPAC condensed, linker removed
[1] = target: Neu5Ac(a2-6)Gal(b1-4)GlcNAc(b1-6)[Gal(b1-3)]GalNAc
Outline: (§1)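 The Consortium for Functional Glycomics database supplied 3228 glycan arrays, of which those lacking an available protein sequence were dropped. The binding signal, a within-array Z-score, was averaged across arrays of the same protein sequence and across linkers. Negative scores can be read as non-binding.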

[2] = target: Neu5Ac(a2-6)Gal(b1-4)GlcNAc6S
Outline: as §1

[3] = target: Neu5Ac(a2-6)GalNAc
Outline: as §1

[4] = target: Neu5Ac(a2-6)GalNAc(b1-4)GlcNAc
Outline: as §1

[5] = target: Neu5Ac(a2-6)GalNAc(b1-4)GlcNAc6S
Outline: as §1

[6] = target: Neu5Ac(a2-6)GlcNAc(b1-4)GlcNAc
Outline: as §1

[7] = target: Neu5Ac(a2-6)GlcNAc(b1-4)GlcNAc(b1-4)GlcNAc
Outline: as §1

[8] = target: Neu5Ac(a2-8)Neu5Ac
Outline: as §1

[9] = target: Neu5Ac(a2-8)Neu5Ac(a2-3)Gal(b1-3)GalNAc(b1-4)[Neu5Ac(a2-3)]Gal(b1-4)Glc
Outline: as §1

[10] = target: Neu5Ac(a2-8)Neu5Ac(a2-3)Gal(b1-3)GalNAc(b1-4)[Neu5Ac(a2-8)Neu5Ac(a2-3)]Gal(b1-4)Glc
Outline: as §1

[11] = target: Neu5Ac(a2-8)Neu5Ac(a2-3)Gal(b1-4)Glc
Outline: as §1

[12] = target: Neu5Ac(a2-8)Neu5Ac(a2-3)Gal(b1-4)GlcNAc
Outline: as §1

[13] = target: Neu5Ac(a2-8)Neu5Ac(a2-3)[Gal(b1-3)GalNAc(b1-4)]Gal(b1-4)Glc
Outline: as §1

[14] = target: Neu5Ac(a2-8)Neu5Ac(a2-3)[GalNAc(b1-4)]Gal(b1-4)Glc
Outline: as §1

[15] = target: Neu5Ac(a2-8)Neu5Ac(a2-8)Neu5Ac
Outline: as §1

[16] = target: Neu5Ac(a2-8)Neu5Ac(a2-8)Neu5Ac(a2-3)Gal(b1-4)Glc
Outline: as §1

[17] = target: Neu5Ac(a2-8)Neu5Ac(a2-8)Neu5Ac(a2-3)[Gal(b1-3)GalNAc(b1-4)]Gal(b1-4)Glc
Outline: as §1

[18] = target: Neu5Ac(a2-8)Neu5Ac(a2-8)Neu5Ac(a2-3)[GalNAc(b1-4)]Gal(b1-4)Glc
Outline: as §1

[19] = target: Neu5Ac(a2-8)Neu5Ac(a2-8)Neu5Ac(a2-8)Neu5Ac(a2-3)[GalNAc(b1-4)]Gal(b1-4)Glc
Outline: as §1

[20] = target: Neu5Ac(a2-8)Neu5Gc(a2-3)Gal(b1-4)GlcNAc
Outline: as §1

[21] = target: Neu5Ac(b2-6)Gal(b1-4)GlcNAc
Outline: as §1

[22] = target: Neu5Ac(b2-6)GalNAc
Outline: as §1

[23] = target: Neu5Ac9Ac(a2-3)Gal(b1-3)GlcNAc
Outline: as §1

[24] = target: Neu5Ac9Ac(a2-3)Gal(b1-4)GlcNAc
Outline: as §1

[25] = target: Neu5Ac9Ac(a2-6)Gal(b1-4)GlcNAc
Outline: as §1

[26] = target: Neu5Gc(a2-3)Gal(b1-3)GlcNAc
Outline: as §1

[27] = target: Neu5Gc(a2-3)Gal(b1-3)[Fuc(a1-4)]GlcNAc
Outline: as §1

[28] = target: Neu5Gc(a2-3)Gal(b1-4)Glc
Outline: as §1

[29] = target: Neu5Gc(a2-3)Gal(b1-4)GlcNAc
Outline: as §1

[30] = target: Neu5Gc(a2-3)Gal(b1-4)GlcNAc(b1-3)Gal(b1-4)GlcNAc(b1-2)Man(a1-3)[Neu5Gc(a2-3)Gal(b1-4)GlcNAc(b1-3)Gal(b1-4)GlcNAc(b1-2)Man(a1-6)]Man(b1-4)GlcNAc(b1-4)GlcNAc
Outline: as §1

[31] = target: Neu5Gc(a2-3)Gal(b1-4)[Fuc(a1-3)]GlcNAc
Outline: as §1

[32] = target: Neu5Gc(a2-6)Gal(b1-4)GlcNAc
Outline: as §1

[33] = target: Neu5Gc(a2-6)GalNAc
Outline: as §1

[34] = target: Neu5Gc(a2-8)Neu5Ac(a2-3)Gal(b1-4)GlcNAc
Outline: as §1

[35] = target: Neu5Gc(a2-8)Neu5Gc(a2-3)Gal(b1-4)GlcNAc
Outline: as §1

[36] = target: Neu5Gc(a2-8)Neu5Gc(a2-3)Gal(b1-4)GlcNAc(b1-3)Gal(b1-4)GlcNAc
Outline: as §1

[37] = target: Neu5Gc(a2-8)Neu5Gc(a2-6)Gal(b1-4)GlcNAc
Outline: as §1

[38] = target: Neu5Gc(b2-6)Gal(b1-4)GlcNAc
Outline: as §1

B1: SBD-G4S3-SBD (protein)
chain: MASIPSSASVQLDSYNYDGSTFSGKIYVKNIAYSKKVTVVYADGSDNWNNNGNIIAASFSGPISGSNYEYWTFSASVKGIKEFYIKYEVSGKTYYDNNNSANYQVSTGGGGSGGGGSGGGGSEFASIPSSASVQLDSYNYDGSTFSGKIYVKNIAYSKKVTVVYADGSDNWNNNGNIIAASFSGPISGSNYEYWTFSASVKGIKEFYIKYEVSGKTYYDNNNSANYQVST
glycan array binding signal (z-score) [1]: -0.313 | glycan array binding signal (z-score) [2]: -0.387 | glycan array binding signal (z-score) [3]: -0.401 | glycan array binding signal (z-score) [4]: -0.413 | glycan array binding signal (z-score) [5]: -0.365 | glycan array binding signal (z-score) [6]: -0.416 | glycan array binding signal (z-score) [7]: -0.376 | glycan array binding signal (z-score) [8]: -0.384 | glycan array binding signal (z-score) [9]: -0.38 | glycan array binding signal (z-score) [10]: -0.339 | glycan array binding signal (z-score) [11]: -0.448 | glycan array binding signal (z-score) [12]: -0.37 | glycan array binding signal (z-score) [13]: -0.36 | glycan array binding signal (z-score) [14]: -0.014 | glycan array binding signal (z-score) [15]: -0.377 | glycan array binding signal (z-score) [16]: -0.406 | glycan array binding signal (z-score) [17]: -0.269 | glycan array binding signal (z-score) [18]: -0.189 | glycan array binding signal (z-score) [19]: 0.002 | glycan array binding signal (z-score) [20]: 0.676 | glycan array binding signal (z-score) [21]: 0.086 | glycan array binding signal (z-score) [22]: -0.424 | glycan array binding signal (z-score) [23]: -0.341 | glycan array binding signal (z-score) [24]: -0.416 | glycan array binding signal (z-score) [25]: -0.389 | glycan array binding signal (z-score) [26]: -0.335 | glycan array binding signal (z-score) [27]: -0.366 | glycan array binding signal (z-score) [28]: -0.367 | glycan array binding signal (z-score) [29]: -0.326 | glycan array binding signal (z-score) [30]: -0.393 | glycan array binding signal (z-score) [31]: -0.388 | glycan array binding signal (z-score) [32]: -0.344 | glycan array binding signal (z-score) [33]: -0.285 | glycan array binding signal (z-score) [34]: -0.375 | glycan array binding signal (z-score) [35]: -0.422 | glycan array binding signal (z-score) [36]: -0.399 | glycan array binding signal (z-score) [37]: -0.346 | glycan array binding signal (z-score) [38]: -0.28
